This is an account of results in the antibiotic and cytotoxicity screens of Wong et al. (2023).

The list shows a part of the results.

One assay concerns HSkMC (human skeletal muscle cells). The assay can be described thus: cytotoxicity call (relative viability < 0.9). The following applies: 10 µM.
`C[C@@H]1O[C@@H](O[C@@H]2[C@@H](O)[C@H](OCCc3ccc(O)c(O)c3)O[C@H](CO)[C@H]2OC(=O)/C=C/c2ccc(O)c(O)c2)[C@H](O)[C@H](O)[C@H]1O`: the cytotoxicity call is “inactive”. The same measure, in the same setting: under `Cc1ncc(CSSCc2cnc(C)c(O)c2CO)c(CO)c1O` stands “inactive”; under `NCCCn1ccnc1`, “inactive”. On the same count and under the same terms, for `CC(=O)OCC(COC(C)=O)OC(C)=O` the value was “inactive”; for `O=S(=O)(O)NC1CCCCC1`, “inactive”; for `COc1ccc(NC(=O)Nc2ccc3c(c2)C(=O)N([C@H](C)CO)C[C@H](C)[C@H](CN(C)S(=O)(=O)c2ccc(F)cc2)OCCCC[C@@H](C)O3)cc1`, “inactive”. On the same count and under the same terms, for `CC(C)NC(=O)N(C)C[C@@H]1Oc2ccc(NS(=O)(=O)c3ccc(Cl)cc3)cc2CC(=O)N([C@@H](C)CO)C[C@H]1C` the value was “inactive”. `COc1cccc(NC(=O)N(C)C[C@@H]2Oc3ncc(C#Cc4ccncc4)cc3C(=O)N([C@H](C)CO)C[C@H]2C)c1`: the cytotoxicity call was “inactive”. For `COc1cccc(S(=O)(=O)N[C@@H]2CC[C@@H](CC(=O)NC3CCC3)O[C@@H]2CO)c1`, the cytotoxicity call is “inactive”.

`CS(=O)(=O)N1[C@@H]2Cn3c(ccc(-c4cccc(F)c4)c3=O)[C@H]1[C@@H](C(=O)N1CCOCC1)[C@@H]2CO`: the cytotoxicity call was “inactive”. Still for that read-out and setting: for `CO[C@H]1CN(C)C(=O)c2ccc(NS(=O)(=O)c3cn(C)cn3)cc2OC[C@H](C)N(CC2CC2)C[C@H]1C` the value was “inactive”. As for `C[C@H]1CN([C@@H](C)CO)C(=O)CCCn2cc(nn2)CO[C@@H]1CN(C)C(=O)Nc1ccc2c(c1)OCCO2`, the cytotoxicity call is “inactive”. Same read-out and setting: under `COc1ccc(S(=O)(=O)Nc2cccc3c2O[C@H](CN(C)C(=O)Nc2cccc4ccccc24)[C@H](C)CN([C@H](C)CO)C3=O)cc1` stands “inactive”; under `CCC(=O)Nc1ccc(C)c(C)c1`, “inactive”. As to `C[C@@H]1CN([C@@H](C)CO)C(=O)c2cc(NC(=O)Cn3cnnn3)ccc2O[C@H]1CN(C)S(=O)(=O)c1cn(C)cn1`, the cytotoxicity call was “inactive”.

Take `COc1ccc(NC(=O)N(C)C[C@H]2OCCCC[C@H](C)Oc3ccc(NS(=O)(=O)c4ccccc4)cc3C(=O)N([C@H](C)CO)C[C@@H]2C)cc1`: the cytotoxicity call was “inactive”. Still for that read-out and setting: for `C[C@@H]1CN([C@@H](C)CO)C(=O)c2cc(NS(=O)(=O)c3cccs3)ccc2O[C@H]1CN(C)S(=O)(=O)c1ccc(F)cc1` the value was “inactive”.

For the compound `CO[C@H](C(=O)N(C)C[C@H]1OCc2ccccc2-c2c(n(C)c3ccccc23)C(=O)N([C@@H](C)CO)C[C@H]1C)c1ccccc1`, the cytotoxicity call is “inactive”. The same measure, in the same setting: for `CCCCCCCCCCCCCCCC(=O)OCC=C(C)C=CC=C(C)C=CC1=C(C)CCCC1(C)C` the value was “inactive”; for `COc1ccc(-c2ccccc2)cc1NC(=O)c1ccc2nc(C)c(N(C)C(=O)CCc3ccccc3)n2c1`, “inactive”. On the same count and under the same terms, for `CCOC(=O)C1=C(COCCN)NC(C)=C(C(=O)OC)C1c1ccccc1Cl.O=S(=O)(O)c1ccccc1` (centres undefined) the value was “inactive”; for `COc1ccc(COCC23Oc4ccccc4[C@H]([C@H]2CO[Si](C)(C)C(C)(C)C)n2c(c4ccccc4c(-c4ccccc4)c2=O)N3C)cc1`, “active”; for `Cc1noc(C)c1S(=O)(=O)Nc1ccc2c(c1)C(=O)N([C@H](C)CO)C[C@H](C)[C@@H](CN(C)S(=O)(=O)c1cn(C)cn1)OCCCC[C@@H](C)O2`, “inactive”. On the same count and under the same terms, for `C=C1C(=O)O[C@@H]2[C@H]3C(=CO[C@@H]4O[C@H](CO)[C@@H](O)[C@H](O)[C@H]4O)CC(=O)C3=C(C)CC[C@@H]12` the value was “inactive”; for `C[C@@H]1CCCCO[C@@H](CN(C)C(=O)CCCN(C)C)[C@H](C)CN([C@@H](C)CO)C(=O)c2cc(N(C)C)ccc2O1`, “inactive”; for `CN1CCN(C(=O)C[C@@H]2CC[C@@H]3[C@H](COC[C@@H](O)CN3C(=O)C3CC3)O2)CC1`, “inactive”. Take `CCOC(=O)C1CCN(C(=O)CNC(=O)Cc2n[nH]c(=O)c3ccccc23)CC1`: the cytotoxicity call was “inactive”. Regarding `C[C@@H]1CN([C@@H](C)CO)C(=O)Cc2cc(NC(=O)C3CC3)ccc2O[C@@H]1CN(C)C(=O)NC1CCCCC1`, the cytotoxicity call was “inactive”.

In the case of `C[C@@H]1CCCCO[C@H](CN(C)Cc2ccc(C(F)(F)F)cc2)[C@@H](C)CN([C@H](C)CO)C(=O)c2cc(NC(=O)CCCCCC(=O)Nc3ccccc3N)ccc2O1`, the cytotoxicity call was “inactive”.

For a further assay, the system named is HepG2. The assay can be described thus: cytotoxicity call (relative viability < 0.9). The conditions noted are these: 10 µM.
`C[C@H](CO)N1C[C@H](C)[C@@H](CN(C)Cc2ccc(C(F)(F)F)cc2)OCCCC[C@H](C)Oc2ccc(N(C)C)cc2C1=O`: the cytotoxicity call was “inactive”. For `C[C@H]1CN([C@@H](C)CO)C(=O)Cc2cc(NS(=O)(=O)c3ccccc3)ccc2O[C@H]1CN(C)Cc1ccc(Oc2ccccc2)cc1`, the cytotoxicity call was “inactive”.

`COc1ccc(CN(C)C[C@@H]2OCCCC[C@H](C)Oc3ccc(NS(=O)(=O)c4ccccc4)cc3C(=O)N([C@@H](C)CO)C[C@H]2C)cc1`: the cytotoxicity call was “inactive”. Consider `CN1CCN(C(=O)C[C@H]2C[C@H]3c4cc(NC(=O)c5ccc6c(c5)OCO6)ccc4O[C@H]3[C@@H](CO)O2)CC1`, for which the cytotoxicity call is “inactive”. `C#C[C@@]1(O)[C@@H](CO)O[C@@H](n2ccc(N)nc2=O)[C@@H]1O`: the cytotoxicity call was “active”. On the same count and under the same terms, for `C=C/C=C/[C@H]1C(=C)CN([C@H](Cc2ccc(-n3cc(CCC(=O)NO)nn3)cc2)C(=O)OC)[C@@H]1[C@H](O)Cc1ccccc1` the value was “inactive”; for `C[C@@H]1CN([C@@H](C)CO)C(=O)Cc2cc(NC(=O)Nc3ccc4c(c3)OCO4)ccc2O[C@H]1CN(C)Cc1ccc(Oc2ccccc2)cc1`, “inactive”. Same read-out and setting: for `C[C@H](CO)N1C[C@H](C)[C@@H](CN(C)Cc2ccncc2)OCCCC[C@H](C)Oc2ccc(NC(=O)Nc3cccc4ccccc34)cc2C1=O` the value was “inactive”; for `CC1(C)[C@H](C(N)=O)CC[C@@]1(C)C(=O)O`, “inactive”. As to `C[C@@H]1CN([C@H](C)CO)C(=O)c2cc(NC(=O)c3ccncc3)ccc2O[C@H]1CN(C)C(=O)Nc1ccc2c(c1)OCO2`, the cytotoxicity call is “inactive”. Still for that read-out and setting: for `CCCNC(=O)Nc1ccc2c(c1)OC[C@@H](C)N(C(=O)C1CCOCC1)C[C@H](C)[C@H](OC)CN(C)C2=O` the value was “inactive”; for `C[C@@H]1O[C@@H](O[C@@H]2[C@@H](O)[C@H](OCCc3ccc(O)c(O)c3)O[C@H](CO)[C@H]2OC(=O)/C=C/c2ccc(O)c(O)c2)[C@H](O)[C@H](O)[C@H]1O`, “inactive”. For the compound `Cc1ncc(CSSCc2cnc(C)c(O)c2CO)c(CO)c1O`, the cytotoxicity call was “inactive”. Turning to `NCCCn1ccnc1`, the cytotoxicity call is “inactive”. For the compound `CC(=O)OCC(COC(C)=O)OC(C)=O`, the cytotoxicity call was “inactive”. In the case of `O=S(=O)(O)NC1CCCCC1`, the cytotoxicity call was “active”. Same read-out and setting: under `COc1ccc(NC(=O)Nc2ccc3c(c2)C(=O)N([C@H](C)CO)C[C@H](C)[C@H](CN(C)S(=O)(=O)c2ccc(F)cc2)OCCCC[C@@H](C)O3)cc1` stands “inactive”; under `CC(C)NC(=O)N(C)C[C@@H]1Oc2ccc(NS(=O)(=O)c3ccc(Cl)cc3)cc2CC(=O)N([C@@H](C)CO)C[C@H]1C`, “inactive”; under `COc1cccc(NC(=O)N(C)C[C@@H]2Oc3ncc(C#Cc4ccncc4)cc3C(=O)N([C@H](C)CO)C[C@H]2C)c1`, “active”. The same measure, in the same setting: for `COc1cccc(S(=O)(=O)N[C@@H]2CC[C@@H](CC(=O)NC3CCC3)O[C@@H]2CO)c1` the value was “inactive”.

In the case of `CS(=O)(=O)N1[C@@H]2Cn3c(ccc(-c4cccc(F)c4)c3=O)[C@H]1[C@@H](C(=O)N1CCOCC1)[C@@H]2CO`, the cytotoxicity call is “inactive”. Same read-out and setting: for `CO[C@H]1CN(C)C(=O)c2ccc(NS(=O)(=O)c3cn(C)cn3)cc2OC[C@H](C)N(CC2CC2)C[C@H]1C` the value was “inactive”; for `C[C@H]1CN([C@@H](C)CO)C(=O)CCCn2cc(nn2)CO[C@@H]1CN(C)C(=O)Nc1ccc2c(c1)OCCO2`, “inactive”; for `COc1ccc(S(=O)(=O)Nc2cccc3c2O[C@H](CN(C)C(=O)Nc2cccc4ccccc24)[C@H](C)CN([C@H](C)CO)C3=O)cc1`, “inactive”. Regarding `CCC(=O)Nc1ccc(C)c(C)c1`, the cytotoxicity call was “inactive”.

In the case of `C[C@@H]1CN([C@@H](C)CO)C(=O)c2cc(NC(=O)Cn3cnnn3)ccc2O[C@H]1CN(C)S(=O)(=O)c1cn(C)cn1`, the cytotoxicity call is “inactive”. On the same count and under the same terms, for `COc1ccc(NC(=O)N(C)C[C@H]2OCCCC[C@H](C)Oc3ccc(NS(=O)(=O)c4ccccc4)cc3C(=O)N([C@H](C)CO)C[C@@H]2C)cc1` the value was “inactive”. The same measure, in the same setting: under `C[C@@H]1CN([C@@H](C)CO)C(=O)c2cc(NS(=O)(=O)c3cccs3)ccc2O[C@H]1CN(C)S(=O)(=O)c1ccc(F)cc1` stands “inactive”; under `CO[C@H](C(=O)N(C)C[C@H]1OCc2ccccc2-c2c(n(C)c3ccccc23)C(=O)N([C@@H](C)CO)C[C@H]1C)c1ccccc1`, “inactive”. On to `CCCCCCCCCCCCCCCC(=O)OCC=C(C)C=CC=C(C)C=CC1=C(C)CCCC1(C)C`, for which the cytotoxicity call is “inactive”. Same read-out and setting: under `COc1ccc(-c2ccccc2)cc1NC(=O)c1ccc2nc(C)c(N(C)C(=O)CCc3ccccc3)n2c1` stands “inactive”; under `CCOC(=O)C1=C(COCCN)NC(C)=C(C(=O)OC)C1c1ccccc1Cl.O=S(=O)(O)c1ccccc1` (centres undefined), “active”; under `COc1ccc(COCC23Oc4ccccc4[C@H]([C@H]2CO[Si](C)(C)C(C)(C)C)n2c(c4ccccc4c(-c4ccccc4)c2=O)N3C)cc1`, “active”. Consider `Cc1noc(C)c1S(=O)(=O)Nc1ccc2c(c1)C(=O)N([C@H](C)CO)C[C@H](C)[C@@H](CN(C)S(=O)(=O)c1cn(C)cn1)OCCCC[C@@H](C)O2`, for which the cytotoxicity call is “inactive”. Same read-out and setting: for `C=C1C(=O)O[C@@H]2[C@H]3C(=CO[C@@H]4O[C@H](CO)[C@@H](O)[C@H](O)[C@H]4O)CC(=O)C3=C(C)CC[C@@H]12` the value was “inactive”; for `C[C@@H]1CCCCO[C@@H](CN(C)C(=O)CCCN(C)C)[C@H](C)CN([C@@H](C)CO)C(=O)c2cc(N(C)C)ccc2O1`, “inactive”; for `CN1CCN(C(=O)C[C@@H]2CC[C@@H]3[C@H](COC[C@@H](O)CN3C(=O)C3CC3)O2)CC1`, “inactive”.

With `CCOC(=O)C1CCN(C(=O)CNC(=O)Cc2n[nH]c(=O)c3ccccc23)CC1`, the cytotoxicity call was “inactive”. As to `C[C@@H]1CN([C@@H](C)CO)C(=O)Cc2cc(NC(=O)C3CC3)ccc2O[C@@H]1CN(C)C(=O)NC1CCCCC1`, the cytotoxicity call was “inactive”. On to `C[C@@H]1CCCCO[C@H](CN(C)Cc2ccc(C(F)(F)F)cc2)[C@@H](C)CN([C@H](C)CO)C(=O)c2cc(NC(=O)CCCCCC(=O)Nc3ccccc3N)ccc2O1`, for which the cytotoxicity call is “inactive”.
